Experiment in all cases: cell count relative to DMSO control; melanoma cells; higher = more viable cells
Common to all, as to conditions: library dose: low library concentration; 72 h

Test [1] has as its system WM115.
Test [2] relates to WM1716.
The subject of test [3] is WM1745.
In test [4] the test system is WM3526.
Test [5] relates to WM3619.
Test [6] concerns WM451Lu.

The other results are listed elsewhere or left out. Repeats are few or missing, and single values can be far off.

These results are taken from the supplement of paper PMC4604168 (melanoma cell lines).
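Also: cell number obtained by counting DAPI-stained nuclei in high-throughput microscope images with image analysis software, screen run in 1,536-well plates.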

With `Cn1cc(C2=C(c3cn(C4CCN(Cc5ccccn5)CC4)c4ccccc34)C(=O)NC2=O)c2ccccc21` [Enzastaurin] + CCN(CC)CCCCNc1ncc2cc(-c3cc(OC)cc(OC)c3)c(NC(=O)NC(C)(C)C)nc2n1 [PD173074] (first compound 0.8 µM, partner dose 0.1 µM), the cell count is 112% in test [1]; 112% in test [2]; 81.9% in test [3]; 100% in test [4]; 82.5% in test [5]; 114% in test [6].

As for `C[As](C)SC[C@H](NC(=O)CC[C@H](N)C(=O)O)C(=O)NCC(=O)O` [Darinaparsin] + CCN(CC)CCCCNc1ncc2cc(-c3cc(OC)cc(OC)c3)c(NC(=O)NC(C)(C)C)nc2n1 [PD173074] (first compound 0.4 µM, partner dose 0.1 µM), the cell count in test [1] was found to be 107%; in test [2] it was 101%; in test [3], 88.3%; in test [4], 116%; in test [5] it was 96.2%; in test [6], 112%.

In the case of `N.N.[Cl][Pt][Cl]` [cisplatin] + Oc1nc(-c2ccc(C(F)(F)F)cc2)nc2c1CSCC2 [XAV939] (first compound 1.6 µM, partner dose 2 µM), the cell count came to 91.9% in test [1]; 63.2% in test [2]; 95.1% in test [3]; 87.3% in test [4]; 79.2% in test [5]; 93.2% in test [6].

As to `Cn1cc(C2=C(c3cn(C4CCN(Cc5ccccn5)CC4)c4ccccc34)C(=O)NC2=O)c2ccccc21` [Enzastaurin] + CC(=O)O[C@@]12CO[C@@H]1C[C@H](O)[C@@]1(C)C(=O)[C@H](O)C3=C(C)[C@@H](OC(=O)[C@H](O)[C@@H](NC(=O)OC(C)(C)C)c4ccccc4)C[C@@](O)([C@@H](OC(=O)c4ccccc4)[C@H]21)C3(C)C [Docetaxel] (first compound 0.8 µM, partner dose 0.0001 µM), the cell count in test [1] was 71.5%; in test [2], 48.1%; in test [3], 52%; in test [4] it was 55.8%; in test [5], 67.5%; in test [6], 78.3%.

Turning to `C[As](C)SC[C@H](NC(=O)CC[C@H](N)C(=O)O)C(=O)NCC(=O)O` [Darinaparsin] + COc1ccc(Cl)c(Nc2nc3ccccc3nc2NS(=O)(=O)c2cccc(NC(=O)C(C)(C)N)c2)c1 [XL147] (first compound 0.4 µM, partner dose 0.8 µM), the cell count in test [1] stood at 99.7%; in test [2] it was 94.8%; in test [3], 91.3%; in test [4], 86%; in test [5] it was 90.9%; in test [6], 89%.

Consider `Cn1cc(C2=C(c3cn(C4CCN(Cc5ccccn5)CC4)c4ccccc34)C(=O)NC2=O)c2ccccc21` [Enzastaurin] + CO[C@@H]1[C@H](N(C)C(=O)c2ccccc2)C[C@H]2O[C@]1(C)n1c3ccccc3c3c4c(c5c6ccccc6n2c5c31)C(=O)NC4 [Midostaurin] (first compound 0.8 µM, partner dose 0.08 µM), for which the cell count is 81.7% in test [1]; 63.8% in test [2]; 73% in test [3]; 89.2% in test [4]; 120% in test [5]; 71.1% in test [6].

In the case of `N.N.[Cl][Pt][Cl]` [cisplatin] + C=CCNC1=C2C[C@@H](C)C[C@H](OC)[C@H](O)[C@@H](C)/C=C(\C)[C@H](OC(N)=O)[C@@H](OC)/C=C\C=C(/C)C(=O)NC(=CC1=O)C2=O [Tanespimycin] (first compound 1.6 µM, partner dose 0.002 µM), the cell count in test [1] came out at 100%; in test [2] it was 99%; in test [3] it was 94.9%; in test [4], 104%; in test [5], 66.1%; in test [6], 96.6%.

For `C[C@]12O[C@H](C[C@]1(O)CO)n1c3ccccc3c3c4c(c5c6ccccc6n2c5c31)CNC4=O` [Lestaurtinib] + COC(=O)c1sccc1S(=O)(=O)Nc1ccc(Nc2ccccc2)cc1OC [GSK0660] (first compound 0.004 µM, partner dose 1 µM), the cell count is 116% in test [1]; 111% in test [2]; 95.7% in test [3]; 85.9% in test [4]; 122% in test [5]; 96.9% in test [6].

Regarding `N.N.[Cl][Pt][Cl]` [cisplatin] + Cc1cc(SCc2sc(-c3ccc(C(F)(F)F)c(F)c3)nc2C)ccc1OCC(=O)O [GW0742] (first compound 1.6 µM, partner dose 2 µM), the cell count in test [1] is 87.4%; in test [2], 89.5%; in test [3], 107%; in test [4], 104%; in test [5], 84.9%; in test [6] it was 97.2%.

Turning to `C[C@]12O[C@H](C[C@]1(O)CO)n1c3ccccc3c3c4c(c5c6ccccc6n2c5c31)CNC4=O` [Lestaurtinib] + CS(=O)(=O)CCNCc1ccc(-c2ccc3ncnc(Nc4ccc(OCc5cccc(F)c5)c(Cl)c4)c3c2)o1 [lapatinib] (first compound 0.004 µM, partner dose 0.8 µM), the cell count in test [1] turned out to be 99.3%; in test [2], 108%; in test [3] it was 108%; in test [4], 95.5%; in test [5], 105%; in test [6], 107%.

For `Cn1cc(C2=C(c3cn(C4CCN(Cc5ccccn5)CC4)c4ccccc34)C(=O)NC2=O)c2ccccc21` [Enzastaurin] + Cc1cc(SCc2sc(-c3ccc(C(F)(F)F)c(F)c3)nc2C)ccc1OCC(=O)O [GW0742] (first compound 0.8 µM, partner dose 2 µM), the cell count in test [1] is 105%; in test [2], 94.7%; in test [3], 90.4%; in test [4] it was 94.4%; in test [5] it was 78.5%; in test [6], 74.3%.

For `C[As](C)SC[C@H](NC(=O)CC[C@H](N)C(=O)O)C(=O)NCC(=O)O` [Darinaparsin] + COc1cc(Nc2ncc(F)c(Nc3ccc4c(n3)NC(=O)C(C)(C)O4)n2)cc(OC)c1OC [Tamatinib] (first compound 0.4 µM, partner dose 0.4 µM), the cell count in test [1] came out at 74.5%; in test [2], 93.9%; in test [3] it was 63.9%; in test [4] it was 90.7%; in test [5] it was 72%; in test [6] it was 92.3%.

In the case of `C[C@]12O[C@H](C[C@]1(O)CO)n1c3ccccc3c3c4c(c5c6ccccc6n2c5c31)CNC4=O` [Lestaurtinib] + O=C(O)c1ccc(-c2c[nH]c3ncc(-c4ccccc4)cc23)cc1C1CCCC1 [GSK650394] (first compound 0.004 µM, partner dose 0.16 µM), the cell count in test [1] is 89.2%; in test [2], 100%; in test [3], 84.9%; in test [4], 95%; in test [5] it was 116%; in test [6] it was 107%.

As for `C[As](C)SC[C@H](NC(=O)CC[C@H](N)C(=O)O)C(=O)NCC(=O)O` [Darinaparsin] + Cn1cc(/C=C2\C(=O)Nc3cccnc32)c2ccccc21 [GW441756] (first compound 0.4 µM, partner dose 0.4 µM), the cell count is 86.8% in test [1]; 116% in test [2]; 95.6% in test [3]; 81.8% in test [4]; 121% in test [5]; 110% in test [6].

Regarding `C[C@]12O[C@H](C[C@]1(O)CO)n1c3ccccc3c3c4c(c5c6ccccc6n2c5c31)CNC4=O` [Lestaurtinib] + NC(=O)Nc1cc(-c2cccc(F)c2)sc1C(=O)N[C@H]1CCCNC1 [AZD7762] (first compound 0.004 µM, partner dose 0.02 µM), the cell count in test [1] is 94.4%; in test [2] it was 84.8%; in test [3], 81.9%; in test [4] it was 67.7%; in test [5], 57%; in test [6] it was 132%.

`C[As](C)SC[C@H](NC(=O)CC[C@H](N)C(=O)O)C(=O)NCC(=O)O` [Darinaparsin] + Cc1nc(Nc2ncc(C(=O)Nc3c(C)cccc3Cl)s2)cc(N2CCN(CCO)CC2)n1 [dasatanib] (first compound 0.4 µM, partner dose 0.004 µM): the cell count is 79.4% in test [1]; 90.9% in test [2]; 68.3% in test [3]; 98.4% in test [4]; 96.1% in test [5]; 79.9% in test [6].

As for `Cn1cc(C2=C(c3cn(C4CCN(Cc5ccccn5)CC4)c4ccccc34)C(=O)NC2=O)c2ccccc21` [Enzastaurin] + C=CCNC1=C2C[C@@H](C)C[C@H](OC)[C@H](O)[C@@H](C)/C=C(\C)[C@H](OC(N)=O)[C@@H](OC)/C=C\C=C(/C)C(=O)NC(=CC1=O)C2=O [Tanespimycin] (first compound 0.8 µM, partner dose 0.002 µM), the cell count in test [1] was determined as 104%; in test [2], 101%; in test [3], 92.2%; in test [4], 113%; in test [5], 75.7%; in test [6] it was 110%.

As for `Cn1cc(C2=C(c3cn(C4CCN(Cc5ccccn5)CC4)c4ccccc34)C(=O)NC2=O)c2ccccc21` [Enzastaurin] + Nc1ncn([C@H]2C[C@H](O)[C@@H](CO)O2)c(=O)n1 [decitabine] (first compound 0.8 µM, partner dose 0.1 µM), the cell count came to 111% in test [1]; 89.2% in test [2]; 89.6% in test [3]; 101% in test [4]; 100% in test [5]; 91.7% in test [6].

For the compound `N.N.[Cl][Pt][Cl]` [cisplatin] + CS(=O)(=O)CCNCc1ccc(-c2ccc3ncnc(Nc4ccc(OCc5cccc(F)c5)c(Cl)c4)c3c2)o1 [lapatinib] (first compound 1.6 µM, partner dose 0.8 µM), the cell count came out at 114% in test [1]; 90.6% in test [2]; 97.6% in test [3]; 93.9% in test [4]; 94.9% in test [5]; 77.3% in test [6].

For `Cn1cc(C2=C(c3cn(C4CCN(Cc5ccccn5)CC4)c4ccccc34)C(=O)NC2=O)c2ccccc21` [Enzastaurin] + Cc1cc([N+](=O)[O-])ccc1NS(=O)(=O)c1cc(Cl)ccc1Cl [FH535] (first compound 0.8 µM, partner dose 1 µM), the cell count came to 102% in test [1]; 98.8% in test [2]; 94.4% in test [3]; 92.1% in test [4]; 85.6% in test [5]; 105% in test [6].

Take `C[C@]12O[C@H](C[C@]1(O)CO)n1c3ccccc3c3c4c(c5c6ccccc6n2c5c31)CNC4=O` [Lestaurtinib] + CN(c1ncccc1CNc1nc(Nc2ccc3c(c2)CC(=O)N3)ncc1C(F)(F)F)S(C)(=O)=O [PF562271] (first compound 0.004 µM, partner dose 0.08 µM): the cell count in test [1] stood at 80.9%; in test [2], 95.2%; in test [3], 94.7%; in test [4], 86.2%; in test [5], 88.7%; in test [6] it was 84.5%.

For `C[C@]12O[C@H](C[C@]1(O)CO)n1c3ccccc3c3c4c(c5c6ccccc6n2c5c31)CNC4=O` [Lestaurtinib] + c1cc(-c2cnn3cc(-c4ccc(OCCN5CCCCC5)cc4)cnc23)ccn1 [Dorsomorphin] (first compound 0.004 µM, partner dose 0.4 µM), the cell count in test [1] was 90.7%; in test [2] it was 104%; in test [3], 88.6%; in test [4], 77%; in test [5], 108%; in test [6] it was 76.1%.

Turning to `N.N.[Cl][Pt][Cl]` [cisplatin] + CN(C)S(=O)(=O)c1ccc2c(c1)/C(=C/c1cc3c([nH]1)CCCC3)C(=O)N2 [SU6656] (first compound 1.6 µM, partner dose 0.4 µM), the cell count in test [1] was 80.1%; in test [2], 107%; in test [3], 95.1%; in test [4], 85.8%; in test [5], 103%; in test [6], 88.3%.

With `N.N.[Cl][Pt][Cl]` [cisplatin] + O=C(O)c1ccc(-c2c[nH]c3ncc(-c4ccccc4)cc23)cc1C1CCCC1 [GSK650394] (first compound 1.6 µM, partner dose 0.16 µM), the cell count turned out to be 88.7% in test [1]; 121% in test [2]; 99.2% in test [3]; 62.1% in test [4]; 75% in test [5]; 87.5% in test [6].
